# Data reported in PubChem BioAssay AID1963576 (National Center for Advancing Translational Sciences (NCATS), 2024).
# About 60 (0.1%) of roughly 46,000 compounds were called active. The inconclusive results got no clear call from the source; some entries with a clear call stand among them for comparison. Calls follow the shape of the dose curve; as a rule, active = well fitted inhibition curve with a large enough effect; inconclusive = small, poorly fitted or top-dose-only effect; inactive = no such curve, though single readings can be large or run the other way. No potency is given beside an inconclusive call; the fits are too rough.
# Experiment: Primary qHTS assay for Inhibitors of ovarian cancer metastasis using an organotypic tumor microenvironment (TME) model. Also: nearly all actives have a fitted effect of over 65% in size.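 As to potency: count of GFP cancer cells still attached after washing and fixation.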
# Conditions: SKOV3ip1-GFP adhesion/invasion on 3D omental model, fluorescence; activity change, negative = inhibition: at 45.8 µM (top of the series); series mostly up to 45.8 µM
# Description: PI: Ernst Lengyel MD., Ph.D. Department of Obstetrics and Gynecology, Section of Gynecologic Oncology University of Chicago Medicine, Chicago, Illinois. The tumor microenvironment (TME) is a key determinant of metastatic efficiency. We performed a quantitative high-throughput screen (qHTS) of diverse medicinal chemistry tractable scaffolds (44,420 compounds) and pharmacologically active small molecules (386 compounds) using a layered organotypic, robust assay representing the ovarian cancer metastatic TME. This 3D model contains primary human mesothelial cells, fibroblasts, and extracellular matrix, to which fluorescently labeled ovarian cancer cells are added. Initially, 100 compounds inhibiting ovarian cancer adhesion/invasion to the 3D model in a dose-dependent manner were identified. Of those, eight compounds were confirmed active in five high-grade serous ovarian cancer cell lines and were further validated in secondary in vitro and in vivo biological assays. […] Specifically, NCGC00117362 and PP-121 inhibited ovarian cancer adhesion, invasion, and proliferation, whereas milciclib inhibited ovarian cancer invasion and proliferation. […] To evaluate the clinical potential of NCGC00117362, structure - activity relationship studies were performed. […] The three compounds identified have promise as therapeutics for prevention and treatment of ovarian cancer metastasis.
# PROTOCOL TABLE (as described by Inglese J, Shamu CE and Guy RK. 2007) SEQUENCE No. (e.g., 1, 2, 3, etc.); […] (e.g., Cells, Incubation, Reagent, etc.); VALUE; DESCRIPTION. 1; Cells; 4 uL; primary human omental fibroblast, black, clear bottom, low base, 1536-well Aurora assay plate. 2; Incubation; 48 hr; 37C. 3; Cells; 3 uL; 1,200 SKOV3ip1-GFP cells. 4; Compounds; 23nL; acoustic dispenser. 5; Incubation; 2 hr; room temperature. 6; Incubation; 16 hr; 37C. 7; Wash; 5 uL; 1x PBS. 8; Fixing; 5 uL; 4% paraformaldehyde (PFA). 9; Incubation; 15 min; room temperature 10; Wash, 5 uL; 1x PBS. 11; Detection; Fluorescence, excitation filter 488 nm, emission filter 509 nm. NOTES (numbers refer to Sequence numbers above) 1. For the 1,536-well format, 40 primary human omental fibroblasts and 400 mesothelial cells were seeded with 0.02 µg fibronectin and 0.02 µg collagen type I in 4 µL of growth media (2.3 mm2; Supplementary Fig. S1A). 2. Assay plates were incubated for 48 hours at 37 C. 3. After incubation, 1,200 SKOV3ip1-GFP were seeded in 3 µL of serum-free media (growth media minus FBS) on top of primary human omental cells. 4. Compounds or controls were added to each well immediately after the addition of the cancer cells. Compounds were screened in four doses (0.36-46 µmol/L), and the plates contained the positive control (Tomatine) in eight doses (0.035-75 µmol/L) and DMSO (equal volume controls) 5 - 6. The plates were incubated at room temperature for 2 hours and then at 37 degrees C for 16 hours. 7 - 10. Following incubation, the media were aspirated and each well washed with PBS (5 µL) and then fixed with 4% paraformaldehyde (PFA; 5 µL). After 15 minutes, the PFA solution was aspirated, PBS (5 µL) was added. 11. The number of GFP-labeled cells analyzed using a fluorescent cytometer TTP LabTech Acumen eX3 using 488 nm excitation filter and 509 nm emission filter. Data was normalized to the DMSO treated for negative and Tomatine treated wells for positive control. REFERENCES: Inglese J, Shamu CE and Guy RK, Reporting data from high throughput screening of small molecule libraries, Nature Chemical Biology, 2007, 3(8): 438-441. doi.org/10.1038/nchembio0807-438. Yasgar A, Shinn P, Jadhav A, Auld DS, Michael S, Zheng W, Austin CP, Inglese J and Simeonov A, Compound Management for Quantitative High-Throughput Screening. J. Assoc. Lab. Auto., 2008, 13: 79-89. doi: 10.1016/j.jala.2007.12.004.
# Potency is read from the fitted curve at half-maximal effect; tags tell the direction and shape of the fitted curve.
SMILES,Potency,outcome,"activity change, negative = inhibition"
COc1cccc(C2=CC(c3ccccc3F)n3ncc(C(=O)Nc4ccc(F)cc4)c3N2)c1 (centres undefined),"inconclusive [inhibitor, single point]",,
NC(CO)(CO)CCc1ccc(Sc2cccc(OCc3ccccc3)c2)cc1Cl,"inconclusive [inhibitor, partial curve, poor fit]",,
Cc1ccc2c(Sc3ccc(Cl)cc3)c(C(=O)N3CCCCC3)[nH]c2c1,"inconclusive [inhibitor, single point]",,
COc1ccc(OC)c(NC(=O)c2cc3c(=O)oc4ccccc4c3s2)c1,"inconclusive [inhibitor, single point]",,
Cc1ccc(O)c(C(CC(=O)NCC2(c3ccccc3)CCCC2)c2ccccc2)c1 (centres undefined),"inconclusive [inhibitor, partial curve, poor fit]",,
O=C(NCc1cccc(Cl)c1)c1cc2c(s1)-c1ccccc1OC2,,inactive,
COc1ccc(Cl)cc1Nc1sc(C(=O)c2ccccc2)c(N)c1C(=O)Nc1ccccc1,"inconclusive [inhibitor, single point]",,
CCC(CC)C(=O)Nc1ccc(OCc2cc(=O)n3c4c(sc3n2)CCCC4)cc1,"inconclusive [inhibitor, single point]",,
CN(C)C(=O)c1ccc(S(=O)(=O)c2ccc(NC(=O)[C@@](C)(O)C(F)(F)F)c(Cl)c2)cc1,,,inactive: -11.7%
CCOc1cc(CNc2ccc(O)cc2)cc(Br)c1OCc1ccccc1,,,inactive: -0.153%
COCCCNC(=O)c1cc(-c2cccnc2)nc2ccccc12,"inconclusive [inhibitor, full curve, poor fit]",,
COc1ccc(C(=O)Nc2ccc3nc4n(c(=O)c3c2)CCCCC4)cc1OC,,,inactive: 2.13%
CCn1c(CN2CCCCC2)nc2cc(NC(=O)COc3ccccc3C(C)(C)C)ccc21,,,inactive: -22.2%
Cc1ccc(OCCCn2c(-c3ccc(Cl)cc3)nc3ccccc3c2=O)c(C)c1,,,inactive: -5.87%
CCOc1cc(CNC(=O)Cn2c(=O)c3cccn3c3ccc(F)cc32)cc(OCC)c1OCC,"inconclusive [inhibitor, single point]",,
CCN(Cc1ccccc1)S(=O)(=O)c1cc(C(=O)Nc2cc(Cl)cc(Cl)c2)ccc1F,"inconclusive [inhibitor, single point]",,
CCOc1ccc(N(C(C)C(=O)Nc2cc(Cl)ccc2OC)S(C)(=O)=O)cc1 (centres undefined),"inconclusive [inhibitor, full curve, poor fit]",,
Cc1ccc(Cn2c(CN3CCC(C(=O)NCCc4ccccc4)CC3)cc3ccccc32)cc1,"inconclusive [inhibitor, single point]",,
CC(=O)N1c2ccc(S(=O)(=O)NCCC(=O)Nc3ccc(Br)c(C)c3)cc2CC1C (centres undefined),,,inactive: 1.93%
CCCCOc1cccc(C(=O)N(Cc2cccs2)c2ccc(OC)cc2)c1,"inconclusive [inhibitor, partial curve, poor fit]",,
COc1ccc(N2CC(NC(=O)c3ccc(S(=O)(=O)N4CCOCC4)cc3)CC2=O)cc1OC (centres undefined),"inconclusive [inhibitor, partial curve, poor fit]",,
CCN(CC)CCNC(=O)Nc1ccc2c(c1)N(Cc1ccccc1)C(=O)c1ccccc1S2,"inconclusive [inhibitor, single point]",,

SMILES,Potency,outcome,"activity change, negative = inhibition"
CC1CCN(S(=O)(=O)c2ccc3nc(NCc4ccc(N(C)C)cc4)ccc3c2)CC1,"inconclusive [inhibitor, partial curve]",,
Cc1ccc(C)c(NC(=O)Cn2ncc3c(C)n(Cc4ccc(F)cc4)c(C)c3c2=O)c1,"inconclusive [inhibitor, partial curve]",,
COc1ccc(-c2cc(C(F)(F)F)n3nc(C)c(-c4ccccc4)c3n2)cc1OC,,inactive,
CCOc1ccc(NC(=O)NCCN2CCN(c3cc(Cl)ccc3C)CC2)cc1,,,inactive: 9.23%
CCc1ccccc1NC(=O)c1cc(-c2ccc(Cl)s2)nc2ccccc12,"inconclusive [inhibitor, single point]",,
Cc1cccc(-n2cnc3cc(C(=O)NCc4ccccc4Cl)ccc32)c1,"inconclusive [inhibitor, single point]",,
Cc1ccc(O)c(NC(=O)CCS(=O)(=O)c2nc(-c3cccs3)cc(C(F)(F)F)n2)c1,"inconclusive [inhibitor, partial curve, poor fit]",,
CCOc1ccc(CNCc2c(C(=O)O)n(Cc3ccc(C)cc3)c3cc(C)ccc23)cc1,,,inactive: -24.8%
COc1ccc(S(=O)(=O)NCC(c2ccco2)S(=O)(=O)c2cccs2)cc1C (centres undefined),,,inactive: -1.8%
Cc1oc2ncnc(N3CCOCC3)c2c1C(=O)N(Cc1ccccc1)C(C)C,,inactive,
CCOc1ccc(C2Nc3c(C)cccc3-c3cc(C)nn32)cc1 (centres undefined),,,inactive: 1.56%
COc1cccc(-c2nnc(-c3ccccc3NC(=O)c3cccc(C(F)(F)F)c3)o2)c1,"inconclusive [inhibitor, single point]",,
COc1ccc(C(=O)c2oc3ccccc3c2NC(=O)COc2cccc(C)c2C)cc1,"inconclusive [inhibitor, single point]",,
CC(=O)Nc1ccccc1-c1nc2ccccc2n(Cc2cccc(Br)c2)c1=O,"inconclusive [inhibitor, partial curve, poor fit]",,
Cc1ccc(NC(=O)N2CCC(c3ccccc3)C2)cc1C (centres undefined),,,inactive: -7%
COc1ccc2nc(NC(=O)c3nc(S(=O)(=O)Cc4cccc(C)c4)ncc3Cl)sc2c1,"inconclusive [inhibitor, full curve, poor fit]",,
CCOc1cccc(C2c3c(-c4cc(C)ccc4O)n[nH]c3C(=O)N2Cc2ccco2)c1 (centres undefined),"inconclusive [inhibitor, single point]",,
Cc1ccc(NC(=O)Cn2c(=O)oc3cc(S(=O)(=O)NCc4ccccc4)ccc32)cc1,,,inactive: -19.1%
CCC(=O)C1=C(c2cccc(OC)c2)N(C(=O)CC)n2c(nnc2C2CCCCC2)S1,"inconclusive [inhibitor, single point]",,
COc1ccc(CNC(=O)Cn2c(=O)nc(-c3ccccc3F)c3cc(Cl)ccc32)cc1,active: 11.2 µM,,
CCCC1=Nc2cc(C(=O)NCCc3ccc(OCC)cc3)ccc2Sc2ccccc21,,inactive,
COc1ccccc1C(=O)NCc1nnnn1-c1ccc(C)c(C)c1,"inconclusive [inhibitor, single point]",,

SMILES,Potency,outcome,"activity change, negative = inhibition"
CCCCCn1c(=O)[nH]c2cc(C(=O)N3CCN(c4cc(Cl)ccc4C)CC3)ccc2c1=O,,inactive,
CCOC(=O)c1ccc(Nc2nc3nonc3nc2Nc2cccc(C)c2C)cc1,"inconclusive [inhibitor, partial curve, poor fit]",,
Cc1nc(-c2ccccc2)sc1-c1ccc(SCC(=O)NCc2ccccc2)nn1,"inconclusive [inhibitor, single point]",,
O=C(Nc1nc(-c2ccc(Br)cc2)ns1)c1ccccc1F,"inconclusive [inhibitor, full curve, poor fit]",,
Cc1c(NC(=O)c2ccc(C(C)(C)C)cc2)cccc1-c1cn(C)c(=O)c(Nc2ccc(C(=O)N3CCOCC3)cc2)n1,,,inactive: -5.53%
CCCN(CCC)CCCNC(=O)Cn1ncc2c3ccccc3n(Cc3ccccc3F)c2c1=O,"inconclusive [inhibitor, single point]",,
CC1=C(C(=O)NCc2ccccc2C)C2(CCCCCC2)OC1=O,"inconclusive [inhibitor, single point]",,
COC(=O)c1sc(-c2ccccc2)cc1NC(=O)Nc1ccc(Cl)cc1,"inconclusive [inhibitor, single point]",,
COc1cc2nc(Nc3cccc(C)c3)nc(N)c2cc1OC,"inconclusive [inhibitor, single point]",,
COc1ccc(NC(=O)c2sc3nc4c(cc3c2N)CCCCCC4)cc1,"inconclusive [inhibitor, single point]",,
CCCN(CCC)CCCNC(=O)C1CCN(c2nc3ccc(CC)cc3s2)CC1,"inconclusive [inhibitor, full curve, poor fit]",,
COc1ccc(OCC(=O)Nc2ccc(Cl)c(-c3nc4ncccc4o3)c2)cc1,"inconclusive [inhibitor, partial curve, poor fit]",,
O=C(Nc1ccccc1F)c1nc(SCc2ccccc2F)ncc1Cl,,,inactive: 5.06%
Cc1cc(C)cc(NS(=O)(=O)c2ccc3[nH]cc(C(=O)NCc4ccco4)c(=O)c3c2)c1,,,inactive: -0.382%
CC(C)c1cnc2c(c1SCC(=O)Nc1cccc([N+](=O)[O-])c1)c(=O)n(C)c(=O)n2C,"inconclusive [inhibitor, partial curve, poor fit]",,
CSc1ccc(CCNC(=O)c2ccc3c(c2)c(C)c(C)n3Cc2ccc(F)cc2)cc1,,,inactive: 2.73%
COc1ccc(CCNC(=O)c2cc3c(=O)[nH]c4ccc(C)cc4c3s2)cc1OC,"inconclusive [inhibitor, partial curve, poor fit]",,
COC(=O)c1ccc(NC(=O)c2c(NCc3ccc(OC)c(OC)c3)sc3c2CCCC3)cc1,"inconclusive [inhibitor, partial curve, poor fit]",,
Cc1oc2ncnc(N3CCCCC3)c2c1C(=O)Nc1cccc(F)c1,"inconclusive [inhibitor, partial curve, poor fit]",,
COc1ccc(Nc2cc(C(=O)NCCCN(C)C3CCCCC3)c3ccccc3n2)cc1,"inconclusive [inhibitor, partial curve, poor fit]",,
